Values marked as one replicate rest on one cluster of the flow cell; about a third of the high ones do not repeat.
Test system: ATP
Assay: switch fluorescence ratio, 500 uM ATP over buffer (Cy3 cluster intensity, sum of 5 cycles each) (fold (ratio)); higher = stronger signal-on switching upon ATP binding; sequences stand for … in TCGTCGGCAGCGTCAGATGTGTATAAGAGACAGTTTTTTTTTTTTTTTTTTTTTTTTT…TC
Settings: aptamer strand: ATP DNA aptamer (quencher-CACCTGGGGGAGTATTGCGGAGGAAGG + anchor), 100 nM annealed; ATP concentration: 500 uM; one replicate
How it was run: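 Per cluster, summed Cy3 intensity from the target cycles was divided by that from the buffer cycles to give the fluorescence ratio, then averaged per switch-domain sequence. Clusters outside 100-1000 RFU were excluded. The Cy3-labelled switching-strand clusters, on a modified Illumina MiSeq flow-cell, were annealed to 100 nM quencher-labelled ATP aptamer and imaged in selection buffer, then after 15 min with 500 uM ATP at 22 °C, for five cycles with NaOH stripping and re-annealing between them.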
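Further: ATP exposure 15 min at 22 °C before imaging.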

ATGACAGGAG
switch fluorescence ratio: 1.03

CGTTCTGGCG
switch fluorescence ratio: 0.921

GTGGGGCTG
switch fluorescence ratio: 0.94

CGTTAAACAT
switch fluorescence ratio: 1.05

TATAGCGGAG
switch fluorescence ratio: 1.06

GAAACCACGG
switch fluorescence ratio: 1.13

AGCATAGGGC
switch fluorescence ratio: 1.07

CGGGATCTCG
switch fluorescence ratio: 1

TGTTCGGTTA
switch fluorescence ratio: 1.04

GGGTGTCACC
switch fluorescence ratio: 0.976

TTAGATTTAT
switch fluorescence ratio: 1.05

ACCCAATTC
switch fluorescence ratio: 1.47

GGGCAGGTGT
switch fluorescence ratio: 1.37

TTAAACGTTC
switch fluorescence ratio: 1.16

CGCTACACAT
switch fluorescence ratio: 1.03

ACTCCAGACA
switch fluorescence ratio: 1.2

GCACACTTCT
switch fluorescence ratio: 1

ATGTTGTCTT
switch fluorescence ratio: 1.02

ACGGGATACT
switch fluorescence ratio: 2.61

TGCTATGTAC
switch fluorescence ratio: 1.19

GCAATCTACG
switch fluorescence ratio: 1.58

TATGGGGATC
switch fluorescence ratio: 0.98

GGTTGCTCTG
switch fluorescence ratio: 0.987

CAATAGCCGC
switch fluorescence ratio: 1.01

GGTATTTCAA
switch fluorescence ratio: 0.955

GCTGCTATTT
switch fluorescence ratio: 1.01

CGAGCATCTG
switch fluorescence ratio: 1.08

GCCAGCGCAA
switch fluorescence ratio: 2.03

CACATCCTTA
switch fluorescence ratio: 1

CACCATTTAG
switch fluorescence ratio: 0.994

AAGCATTGAA
switch fluorescence ratio: 0.99

ATCTAGAGAC
switch fluorescence ratio: 1.11

TTTAATGAAG
switch fluorescence ratio: 1.03

CTGAGTAAAA
switch fluorescence ratio: 1.06

GCCGTACACT
switch fluorescence ratio: 0.989

ACCCCTATAG
switch fluorescence ratio: 1.18

TTATATCGGA
switch fluorescence ratio: 0.962

AGTATGCGGT
switch fluorescence ratio: 0.99

CATCAATGAA
switch fluorescence ratio: 0.992

GAATAGTATG
switch fluorescence ratio: 0.96

CTCATTCGTA
switch fluorescence ratio: 0.991

CGGGGACTAG
switch fluorescence ratio: 0.986

ATAAGCTGTT
switch fluorescence ratio: 0.959

CGCCGTAAAA
switch fluorescence ratio: 1.02

TCCAAGCAGG
switch fluorescence ratio: 1.68

GGGTGTGCCT
switch fluorescence ratio: 0.99

AAGTCTGTGT
switch fluorescence ratio: 0.969

ACTTATTTGA
switch fluorescence ratio: 0.994

ACATTTAGTG
switch fluorescence ratio: 0.98

CGACAGAGCG
switch fluorescence ratio: 1.07

GGACGTTCTG
switch fluorescence ratio: 0.942

TTAATTTTT
switch fluorescence ratio: 0.968

CGCGAGAAAG
switch fluorescence ratio: 1.03

GATGGAGGCT
switch fluorescence ratio: 0.965

CGAAAGGGGT
switch fluorescence ratio: 1

GACCATTCCG
switch fluorescence ratio: 0.955

CCATACTCAG
switch fluorescence ratio: 1.16

CAACTAGGGT
switch fluorescence ratio: 0.989

GAGTACTTGA
switch fluorescence ratio: 1.01

TAAACCGGCG
switch fluorescence ratio: 1.16

GCTTCTCTA
switch fluorescence ratio: 1.01

TAGAAAACTT
switch fluorescence ratio: 1.02

AAGCCCTTGG
switch fluorescence ratio: 1.13

GGCATCAATC
switch fluorescence ratio: 1.04

TCAGAATATA
switch fluorescence ratio: 1

ACCTAGGACG
switch fluorescence ratio: 1.07

GTGTGAGTG
switch fluorescence ratio: 1.05

CTGCGTTCTT
switch fluorescence ratio: 1.03

ACCAGCTTCC
switch fluorescence ratio: 3.01

CGCGATTTGT
switch fluorescence ratio: 1.1

ACACGGTCGG
switch fluorescence ratio: 0.99

TCAAACAGGT
switch fluorescence ratio: 1.03

AGAACTGAAA
switch fluorescence ratio: 1.15

CTTAGGAGGA
switch fluorescence ratio: 1.05

GGTAGATGAG
switch fluorescence ratio: 0.973

GTCTACTTGC
switch fluorescence ratio: 1.03

GGGACCCGTC
switch fluorescence ratio: 0.943

CTTACCGTTT
switch fluorescence ratio: 1.08

GTCGGTGGTA
switch fluorescence ratio: 1.04

ACGAGTAAAG
switch fluorescence ratio: 0.987

GAAAGAACAC
switch fluorescence ratio: 1.05

AAACAATCGC
switch fluorescence ratio: 1.03

CCGCTTGTGG
switch fluorescence ratio: 1.09

GTGAGCAGCA
switch fluorescence ratio: 1.03

TGATAAGGCG
switch fluorescence ratio: 1.05

TGACCTTCGT
switch fluorescence ratio: 1.35

CTAAATTTTG
switch fluorescence ratio: 1.02

CGGACACTGG
switch fluorescence ratio: 1.05

GATTGTTA
switch fluorescence ratio: 0.978

GATAGAACTA
switch fluorescence ratio: 1.03

TGGTCCTGC
switch fluorescence ratio: 1.03

TTCGCCTGGG
switch fluorescence ratio: 0.954

TATTTGGGT
switch fluorescence ratio: 1

AGCCTGTCAG
switch fluorescence ratio: 1.01

TTTTGAACAT
switch fluorescence ratio: 0.995

AATCGGAAGG
switch fluorescence ratio: 1.04

GTTGGTCTGC
switch fluorescence ratio: 0.995

TAAGGTGTAT
switch fluorescence ratio: 1.07

GCATAACTAC
switch fluorescence ratio: 1.41

CCATGGTGGC
switch fluorescence ratio: 1.16

CGACGACTAG
switch fluorescence ratio: 1.01

GACCAGGCAG
switch fluorescence ratio: 1.02

AATGGATAGG
switch fluorescence ratio: 1.02

GACATAAACT
switch fluorescence ratio: 1.01

TATACTGGGT
switch fluorescence ratio: 1.05

CGTGCAATCG
switch fluorescence ratio: 1.2

AAGGGTCGTA
switch fluorescence ratio: 1.04

TTCTGATGGC
switch fluorescence ratio: 0.963

GGAAACTACA
switch fluorescence ratio: 1.07

CCATCATATA
switch fluorescence ratio: 0.984

AGCAGTAGCA
switch fluorescence ratio: 1.03

AGGCGGGCAA
switch fluorescence ratio: 1

AGTTAACAGT
switch fluorescence ratio: 0.979

ATTACGCCTC
switch fluorescence ratio: 1.11

TGATTGTTCC
switch fluorescence ratio: 1.01

AGTCAGCTTA
switch fluorescence ratio: 1.04

TCTCGGTTGT
switch fluorescence ratio: 1.01

ACTCGTGGGG
switch fluorescence ratio: 0.954

GTAGCTTGTT
switch fluorescence ratio: 0.99

TCTTGAGAAT
switch fluorescence ratio: 1.01

CGTTCGTAAA
switch fluorescence ratio: 1.11

ACGCGCGCTG
switch fluorescence ratio: 0.981

TCTTTGAGCC
switch fluorescence ratio: 0.982

ATTCACAGTA
switch fluorescence ratio: 1.09

TACACTTCCA
switch fluorescence ratio: 1.09

CGTTATAGAA
switch fluorescence ratio: 0.976

CTATCTTACG
switch fluorescence ratio: 1.11

TGGCCAATTA
switch fluorescence ratio: 1.06

CTTTTGCGCG
switch fluorescence ratio: 0.968

GGCTGTCTAT
switch fluorescence ratio: 0.993

AGAGTACCTT
switch fluorescence ratio: 1.1

CGCTTTAACC
switch fluorescence ratio: 1.09

AGCATGACTG
switch fluorescence ratio: 1.08

AGGCTGAAG
switch fluorescence ratio: 0.982

CAGTAAGGCC
switch fluorescence ratio: 0.992

TCGAACGCCC
switch fluorescence ratio: 2.7

ACTTACGAAG
switch fluorescence ratio: 1.22

TTTTCGATAA
switch fluorescence ratio: 0.965

ACTCTTGGGT
switch fluorescence ratio: 0.953

GATTCTGGG
switch fluorescence ratio: 1

CGTCCTAGCC
switch fluorescence ratio: 1.11

TTCCTGGGGT
switch fluorescence ratio: 1

ATTCAAGTTG
switch fluorescence ratio: 0.979

GCGGAAACCG
switch fluorescence ratio: 1.05

CATTTCATGA
switch fluorescence ratio: 0.993

TTGGAAGTGT
switch fluorescence ratio: 1.13

CTATCACGGC
switch fluorescence ratio: 1.06

CTGACCATC
switch fluorescence ratio: 1.29

GATCGATTCA
switch fluorescence ratio: 1.05

TTATCTGGTA
switch fluorescence ratio: 1.01

CGGGGTGAGT
switch fluorescence ratio: 0.954

GGCTTGATTC
switch fluorescence ratio: 0.95

TAGCTACGCA
switch fluorescence ratio: 1.19

GTGTTTACTA
switch fluorescence ratio: 1.02

GTGTGCTGAA
switch fluorescence ratio: 1.04

TTAGAATTTG
switch fluorescence ratio: 0.943

ATATGATGGG
switch fluorescence ratio: 0.991

Reference: the supplement of paper PMC10126150
